Source: the supplement of paper PMC12217912
The other results are listed elsewhere or left out. The full chains were built here from the parent and the listed change. Values near 0.05 are background.

B1: TEV protease; numbered along this chain (parent)
chain: MGESLFKGPRDYNPISSSICHLTNESDGHTTSLYGIGFGPFIITNKHLFRRNNGTLVVQSLHGVFKVKDTTTLQQHLVDGRDMIIIRMPKDFPPFPQKLKFREPQREERICLVTTNFQTKSMSSMVSDTSCTFPSGDGIFWKHWIQTKDGQCGSPLVSTRDGFIVGIHSASNFTNTNNYFTSVPKNFMELLTNQEAQQWVSGWRLNADSVLWGGHKVFMVKPEEPFQPVKEATQL

Variants of: B1
Test: raw area under fraction-flipped curve 0-4 h after induction (AUC4h, not background-subtracted), DNA-recorder readout of cleavage of the substrate (dimensionless); higher = more cleavage of the substrate by the protease variant
Settings: temperature: 34 °C; time window: 0-4 h after rhamnose induction
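Also: Bxb1 expression induced with 0.2% (w/v) L-rhamnose at OD600 near 0.5, cultures sampled hourly, flipped fraction per protease–substrate barcode pair counted by paired-end Illumina sequencing.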

Row | Variant | area with substrate ENLYDQS | area with substrate ENLYEQS | area with substrate ENLYGQS | area with substrate ENLYHQS | area with substrate ENLYIQS | area with substrate ENLYKQS | area with substrate ENLYNQS | area with substrate ENLYPQS | area with substrate ENLYSQS | area with substrate ENLYVQS | area with substrate ENLYMQS | area with substrate ENLYRQS | area with substrate ENLYWQS | area with substrate ENLYYQS | area with substrate ENLYTQS | area with substrate ENLYQQS | area with substrate ENLYLQS
1 | MGESLFKGPRDYNPISSSICHLTNESDGHTTSLYGIGFGPFIITNKHLFRRNNGTLVVQSLHGVFKVKDTTTLQQHLVDGRDMIIIRMPKDFPPFPQKLKFREPQREERICLVTTNFQTKSMSSMVSDTSCTFPSGDGIFWKHWIQTKDGQCGSPLVSTRDGFIVGIHSASNFTNTNNYFTNVPKNFMELLTNQEAQQWVSGWRLNADSVLWGGHKVFMVKPEEPFQPVKEATQL [S182N] | 0.0505 | 0.043 | 0.0473 | 0.0562 | 0.0675 | 0.0561 | 0.0366 | 0.078 | 0.0549 | 0.101 |  |  |  |  |  |  | 
2 | MGESLFKGPRDYNPISSSICHLTNESDGHTTSLYGIGFGPFIITNKHLFRRNNGTLVVQSLHGVFKVKDTTTLQQHLVDGRDMIIIRMPKDFPPFPQKLKFREPQREERICLVTTNFQTKSMSSMVSDTSCTFPSGDGIFWKHWIQTKDGQCGSPLVSTRDGFIVGIHSASNFTNTNNYFTSVPKNFMELLTNQEAQQWVSGWRLNADSVLWGGHKVFMVKPEEPFQHVKEATQL [P228H] | 0.0659 | 0.0627 |  | 0.0706 |  |  |  | 0.0729 | 0.0804 | 0.0902 | 0.0773 | 0.0662 | 0.0748 | 0.0638 |  |  | 
3 | MGESLFKGPRDYNPISSSICHLTNESDGHTTSLYGIGFGPFIITNKHLFRRNNGTLVVQSLHGVFKVKDTTTLQQHLVDGRDMIIIRMPKDFPPFPQKLKFREPQREERICLVTTNFQTKSMSSSVSDTSCTFPSGDGIFWKHWIQTKDGQCGSPLVSTRDGFIVGIHSASNFTNTNNYFTSVPKNFMELLTNQEAQQWVSGWRLNADSVLWGGHKVFMVKPEEPFQPVKEATQL [M125S] | 0.0712 | 0.0588 | 0.0529 | 0.0925 | 0.0911 | 0.0624 |  |  |  |  | 0.0968 | 0.0697 |  | 0.0768 | 0.074 |  | 
4 | MGESLFKGPRDYNPISSSICHLTNESDGHTTSLYGIGFGPFIITNKHLFRRNNGTLVVQSLHGVFKVKDTTTLQQHLVDGRDMIIIRMPKDFPPFPQKLKFREPQREERICLVTTNFQTKSMSSMVSDTSCTFPSGDGIFWKHWIQTKDGQCGSPLVSTRDGFIVGIHSASNFTNTNNYFTSVPKNFMELLTNQEAQQWMSGWRLNADSVLWGGHKVFMVKPEEPFQPVKEATQL [V200M] | 0.0625 |  | 0.0705 | 0.0713 | 0.111 | 0 | 0.0608 | 0.0764 | 0.0685 | 0.085 | 0.0647 | 0.0679 | 0.0718 | 0.0604 |  | 0.0577 | 
5 | MGESLFKGPRDYNPISSSSCHLTNESDGHTTSLYGIGFGPFIITNKHLFRRNNGTLVVQSLHGVFKVKDTTTLQQHLVDGRDMIIIRMPKDFPPFPQKLKFREPQREERICLVTTNFQTKSMSSMVSDTSCTFPSGDGIFWKHWIQTKDGQCGSPLVSTRDGFIVGIHSASNFTNTNNYFTSVPKNFMELLTNQEAQQWVSGWRLNADSVLWGGHKVFMVKPEEPFQPVKEATQL [I19S] | 0.0527 | 0.058 | 0.0659 | 0.0651 |  |  | 0.0553 |  | 0.076 |  | 0.0692 |  |  | 0.0521 | 0.0592 |  | 
6 | MGESLFKGPRDYNPISSSICHLTNESDGKTTSLYGIGFGPFIITNKHLFRRNNGTLVVQSLHGVFKVKDTTTLQQHLVDGRDMIIIRMPKDFPPFPQKLKFREPQREERICLVTTNFQTKSMSSMVSDTSCTFPSGDGIFWKHWIQTKDGQCGSPLVSTRDGFIVGIHSASNFTNTNNYFTSVPKNFMELLTNQEAQQWVSGWRLNADSVLWGGHKVFMVKPEEPFQPVKEATQL [H29K] | 0.0658 | 0.045 |  | 0.0561 |  |  | 0.0884 |  |  | 0.0887 |  |  |  | 0.0572 |  | 0.0629 | 
7 | MGESLFKGPRDYNPISSSICHLTNESDGHTTSLYGIGFGPFIITNKHLFRRNNGTLVVQSLHGVFKVKDTTTLQQHLVDGRDMIIIRMPKDFPPFPQKLKFREPQREERICLVTTNFQTKSMSSMVSDTSCTFPSGDGIFWKHWIQTKDGQCGSPLVSTRDGFIVGIHSASNFTNTNNYFTSVPKNFMELLTNQEAQQWVSGWRLNADSVLQGGHKVFMVKPEEPFQPVKEATQL [W212Q] | 0.0672 |  | 0.0541 | 0.0793 | 0.0791 | 0.0618 | 0.0635 | 0.0509 | 0.0537 | 0.0808 | 0.0734 | 0.0693 | 0.087 | 0.111 |  |  | 
8 | MGESLFKGPRDYNPISSSICHLTNESDGHTTSLYGIGFGPFIITNKHLFRRNNGTLVVQSLHGVFKVKDTTTLQQHLVDGRDMIIIRMPKDFPPFPQKLKFREPQREERICLVTTNFQTKSMSSMVSDTSCTFPSGDGIFWKHWIQTKDGQCGSPLVSTRDGFIVGIHSASNFTNTNNYFTSVPKNFMELLTNQEAQQWVSGWRLNADSVLWGGHKDFMVKPEEPFQPVKEATQL [V217D] | 0.0569 | 0.0705 |  | 0.0699 |  | 0.0552 |  | 0.0593 | 0.0605 |  | 0.0667 |  | 0.0696 |  |  |  | 
9 | MGESLFKGPRDYNPISSSICHLTNESDGHTTSLYGIGFGPFIITNKHLFRRNNGTLVVQSLHGVFKVKDTTTLQQHLVDGRDMIIIRMPKDFPPFPQKLKFREPQREERICLVTTNFQTKSMSSMVSDTSCTFPSGDGIFWKHWIQTKDGQCGSPLVSTRDGFIVGIHSASNFTNTNNYFTSVPKNFMALLTNQEAQQWVSGWRLNADSVLWGGHKVFMVKPEEPFQPVKEATQL [E189A] | 0.108 | 0.0641 | 0.0704 |  |  |  |  | 0.0579 |  |  |  |  |  | 0.0518 | 0.0861 | 0.0696 | 0.0927
10 | MGESLFKGPRDYNPISSSICHLTNESDGHTTSLYGIGFGPFIIGNKHLFRRNNGTLVVQSLHGVFKVKDTTTLQQHLVDGRDMIIIRMPKDFPPFPQKLKFREPQREERICLVTTNFQTKSMSSMVSDTSCTFPSGDGIFWKHWIQTKDGQCGSPLVSTRDGFIVGIHSASNFTNTNNYFTSVPKNFMELLTNQEAQQWVSGWRLNADSVLWGGHKVFMVKPEEPFQPVKEATQL [T44G] | 0.0579 | 0.0578 | 0.069 | 0.0584 | 0.0686 | 0.0348 | 0.0562 | 0.0599 | 0.0585 | 0.0815 | 0.0601 | 0.0373 | 0.0678 | 0.0505 |  | 0.0665 | 
